# Paper PMC4336329 (PLoS ONE, 2015)
# Out of some 310,000 compounds screened, about 2,200 (0.71%) showed an effect of 50% or more. The effect is printed as a negative number. This is one part of the list.
# Target: human ether-à-go-go-related gene (hERG) potassium channel (human, UniProt Q12809)
# Assay: primary screen, population patch clamp on CHO cells stably expressing hERG
# human ether-à-go-go-related gene (hERG) potassium channel, sequence (Q12809 whole entry, looked up): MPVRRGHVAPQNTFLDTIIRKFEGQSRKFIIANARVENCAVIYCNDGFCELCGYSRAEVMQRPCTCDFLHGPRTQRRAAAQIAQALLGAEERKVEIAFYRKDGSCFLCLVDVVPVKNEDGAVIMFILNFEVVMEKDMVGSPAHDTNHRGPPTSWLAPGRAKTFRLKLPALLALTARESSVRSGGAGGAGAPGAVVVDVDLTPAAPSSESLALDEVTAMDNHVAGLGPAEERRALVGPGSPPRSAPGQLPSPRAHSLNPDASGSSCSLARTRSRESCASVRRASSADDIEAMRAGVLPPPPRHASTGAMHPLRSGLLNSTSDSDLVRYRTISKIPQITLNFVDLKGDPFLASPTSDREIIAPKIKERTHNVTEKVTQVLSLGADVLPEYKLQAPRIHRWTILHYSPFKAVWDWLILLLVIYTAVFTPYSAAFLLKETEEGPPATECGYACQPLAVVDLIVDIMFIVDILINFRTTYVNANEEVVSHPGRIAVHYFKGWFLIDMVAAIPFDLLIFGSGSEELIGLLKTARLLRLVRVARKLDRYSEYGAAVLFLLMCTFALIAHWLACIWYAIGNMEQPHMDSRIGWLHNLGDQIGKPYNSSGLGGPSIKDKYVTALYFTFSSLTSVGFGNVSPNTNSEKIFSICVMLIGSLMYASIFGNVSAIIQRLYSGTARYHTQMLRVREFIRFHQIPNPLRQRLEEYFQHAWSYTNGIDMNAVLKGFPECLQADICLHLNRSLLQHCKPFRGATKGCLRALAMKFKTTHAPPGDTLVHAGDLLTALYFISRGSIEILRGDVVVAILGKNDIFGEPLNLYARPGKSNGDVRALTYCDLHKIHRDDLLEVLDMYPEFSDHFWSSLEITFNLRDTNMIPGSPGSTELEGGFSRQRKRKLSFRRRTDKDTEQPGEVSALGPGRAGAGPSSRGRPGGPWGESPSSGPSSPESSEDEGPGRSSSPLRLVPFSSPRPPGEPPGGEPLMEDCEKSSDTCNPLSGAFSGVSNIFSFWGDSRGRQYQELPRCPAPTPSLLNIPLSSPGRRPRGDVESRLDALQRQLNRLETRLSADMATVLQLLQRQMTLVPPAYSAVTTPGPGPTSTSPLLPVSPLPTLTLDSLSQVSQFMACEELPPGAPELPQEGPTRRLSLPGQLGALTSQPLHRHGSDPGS
row,SMILES,"hERG current change (%, negative = inhibition) at 1uM [%]"
1,O=C(CNC(=O)c1ccc(Br)o1)NCc1ccc(F)cc1,12
2,Cc1ccc(/C(N)=N/OC(=O)C23CC4CC(CC(C4)C2)C3)cc1,6.33
3,Cc1ccc(-n2c3c(cc(C(=O)NCC(=O)c4ccccc4)c2=O)C(=O)CCC3)cc1,12.7
4,O=C1N/C(=C\c2ccc(O)cc2)C(O)=C1C=NCc1ccccc1,14.1
5,COc1ccc([C@@H]2C[C@H]3CN(c4ccccc4)C(=O)[C@]34CCCN24)c(OC)c1OC,-4.79
6,COc1ccc(-c2cc(=Nc3ccc(C(=O)O)cc3)c3cc(C)ccc3o2)cc1,7.75
7,Cc1ccc(C(=O)Nc2ccccc2C(=O)NCc2ccccc2)cc1,7.4
8,COc1ccc(C2CC(C)=NN2C=O)cc1OC (stereo not shown),15.3
9,CCOc1ccc(N2C(=O)CC(N(O)c3ccccc3)C2=O)cc1 (stereo not shown),17.9
10,COC(=O)c1[nH]c2ccccc2c1NC(=O)CN1CC(C)OC(C)C1 (stereo not shown),5.62
11,CC(C)(C)c1ccc(/C=C/C(=O)NCCCN2CCOCC2)cc1,-3.05
12,C1CCc2c(nc3nnnn3c2NCC2CC2)C1,5.38
13,N#Cc1cccc2c1-c1ccccc1/C2=N/NC(N)=O,11.5
14,Cc1ccc(C(=O)O)cc1NC(=O)Nc1ccc2c(c1)OCO2,17.1
15,CCCCC[C@H]1CN(CCCC)C(=O)[C@@H]1CC(=O)NCc1ccc(OC)cc1,-43
16,CC(C)CCNC(=O)C(c1ccc(O)cc1)N(Cc1ccco1)C(=O)CCC(=O)Nc1nccs1 (stereo not shown),2.87
17,CCN(CC)c1ccc(/C=N/n2c(C)cc(C)cc2=O)cc1,-1.61
18,CC1CN(C(=O)COC(=O)c2ccc(F)cc2Cl)CC(C)O1 (stereo not shown),10.4
19,Cc1cc(C)n(-c2nc3ccccc3n3cnnc23)n1,1.8
20,O=C(c1ccc(NC2=NC3CS(=O)(=O)CC3S2)cc1)N1CCN(c2ccc(F)cc2)CC1 (stereo not shown),8.65
21,O=C(NCc1cccc(F)c1)c1ccc2nc(N3CCOCC3)sc2c1,-0.967
22,CCCCN(C(=O)c1cccc(S(=O)(=O)N2CCCCC2)c1)C1CCS(=O)(=O)C1 (stereo not shown),-0.881
23,CCCC(=O)NCCCc1nc2ccccc2n1C(C)C,7.39
24,Cc1ccc(N2CC(O)=C(c3nc4ccccc4c(=O)[nH]3)C2=N)cc1C,5.62
25,Cc1cc(NC(=O)CN2C(=O)[C@@H]3[C@H](C2=O)[C@@H]2C[C@H]3C(Br)C2Br)no1 (stereo partly shown),13
